# Measured values as given in PubChem BioAssay AID488969 (Vanderbilt High Throughput Screening Facility, 2010).
# Whole data set: some 110,000 compounds, median “z-score” near -0.1, cut for the highest 2% near 2. The list shows a part of the results. Activity calls are given as the source filed them.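 How the source made its calls: active means z-score in the third read window above 3 or below -3; inactive means the rest.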
# Target: Metabotropic glutamate receptor 8 (Rattus norvegicus) (UniProt P70579)
# Sequence of UniProt P70579 (P70579 whole entry, looked up): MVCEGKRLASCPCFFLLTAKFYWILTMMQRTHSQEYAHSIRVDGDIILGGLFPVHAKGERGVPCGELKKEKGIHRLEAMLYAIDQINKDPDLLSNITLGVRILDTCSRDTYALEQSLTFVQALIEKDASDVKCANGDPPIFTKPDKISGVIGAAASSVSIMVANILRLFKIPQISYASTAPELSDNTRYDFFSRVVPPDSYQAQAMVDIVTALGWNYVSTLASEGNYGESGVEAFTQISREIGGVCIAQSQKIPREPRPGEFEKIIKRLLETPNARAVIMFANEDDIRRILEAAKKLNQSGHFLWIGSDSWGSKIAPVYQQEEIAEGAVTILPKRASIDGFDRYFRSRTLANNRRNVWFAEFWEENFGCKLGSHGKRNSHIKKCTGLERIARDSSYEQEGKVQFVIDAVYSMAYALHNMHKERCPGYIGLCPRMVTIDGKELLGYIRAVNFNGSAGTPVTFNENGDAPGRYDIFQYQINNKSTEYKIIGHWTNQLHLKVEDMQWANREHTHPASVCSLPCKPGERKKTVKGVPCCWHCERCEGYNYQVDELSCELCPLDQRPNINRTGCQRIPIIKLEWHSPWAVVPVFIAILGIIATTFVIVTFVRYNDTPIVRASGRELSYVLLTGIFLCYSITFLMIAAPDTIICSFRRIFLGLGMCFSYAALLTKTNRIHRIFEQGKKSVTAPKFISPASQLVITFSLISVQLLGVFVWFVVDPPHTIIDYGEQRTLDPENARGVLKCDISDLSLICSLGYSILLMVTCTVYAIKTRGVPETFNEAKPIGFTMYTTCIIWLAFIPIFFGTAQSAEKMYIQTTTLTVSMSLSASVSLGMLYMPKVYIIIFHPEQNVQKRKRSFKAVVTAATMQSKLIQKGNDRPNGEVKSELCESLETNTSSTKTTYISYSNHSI
# Assay: rat mGluR8 modulators via GIRK flux, primary screen, cell-based, thallium flux, HTS (AID 488969)
# Conditions: HEK293 rat mGluR8, GIRK (G protein-gated inwardly rectifying potassium channel) thallium flux, FluoZin2; at 10 µM; stronger effect = higher value; submaximal glutamate (EC20) added with thallium
row,Structure (SMILES),z-score
1,Cc1nc2ccccc2c(=O)n1C1CCCCCC1,-0.0751
2,O=C(Nc1ccc(C(=O)N2CCCCC2)cc1)c1ccc(Br)cc1,1.09
3,CCN(C(=O)CSc1nnc2ccccn12)c1c(N)n(Cc2ccccc2)c(=O)[nH]c1=O,0.0507
4,CCOC(=O)Nc1ccc(S(=O)(=O)Nc2nc(C)cc(C)n2)cc1,-0.111
5,CCOc1cc(/C=N/O)ccc1OCC(=O)Nc1cccc(C)c1,-0.0891
6,CC(C)N1C(=O)/C(=C\c2nc3ccccc3c(=O)[nH]2)c2ccccc21,-0.25
7,COc1cccc(/C=C(\C#N)C(=O)NC2CCS(=O)(=O)C2)c1 (stereo unspecified),-0.238
8,CC(=O)Oc1cccc(/C=c2\sc3nc(-c4ccco4)nn3c2=O)c1,-0.739
9,Cc1ccc2c(CC(=O)NCc3ccc4c(c3)OCO4)coc2c1,0.281
10,CCn1c(CNC(=O)COc2ccc(C(C)C)cc2)nnc1SCC(=O)Nc1ccccc1,-0.487
11,COc1ccc(/C=C/C(=O)O/N=C(\N)c2ccccc2)cc1OC,-0.333
12,O=C(NCCCn1ccnc1)c1sc2cccc(F)c2c1Cl,-0.19
13,O=C(Nc1ccccc1)N1CCSc2cc(Cl)ccc21,0.221
14,Cc1cccc(N2C(=O)CN=C2Nc2nc(C)cc(C)n2)c1,-0.792
15,CCCCN(C(=O)c1cnc2n(c1=O)CCS2)c1ccccc1,-0.0461
16,COc1cccc(NC(=O)CNS(=O)(=O)c2ccc3nc(C)sc3c2)c1,0.0289
17,O=C(Nc1ccn(-c2ccccc2)n1)c1ccc(S(=O)(=O)N2CCCCCC2)cc1,-0.122
18,O=C(CN1C(=O)c2cccc3cccc1c23)N1CCN(Cc2ccc3c(c2)OCO3)CC1,-0.363
19,CS(=O)(=O)N(Cc1ccccc1)c1ccc(C(=O)NCc2ccccc2)cc1,-0.193
20,COC(=O)c1ccc(NC(=O)C(=O)NCC2CCCO2)cc1 (stereo unspecified),-0.151
21,Cc1nn2c(C(F)(F)F)cc(-c3ccc(Cl)cc3)nc2c1C(=O)N1CCOCC1,0.903
22,COc1ccc(NC(=O)C(F)(OC)C(F)(F)F)c(OC)c1 (stereo unspecified),-0.224
23,O=C1CN(C(=O)COc2ccccc2)CCN1,-0.232
24,Cc1ccc(S(=O)(=O)Nc2cc(C(=O)N3CCOCC3)ccc2N2CCCCC2)cc1,-0.144

row,Structure (SMILES),z-score
1,Cc1cccc2cc(CN(CCCN3CCOCC3)Cc3nnnn3C(C)(C)C)c(=O)[nH]c12,-0.15
2,NC(=O)C1(N2CCCCC2)CCN(C(=O)c2ccc(C#CC3(O)CCCCC3)cc2)CC1,-0.272
3,COc1cc(C2CC(=O)NC3=C2C(=O)CC(C)(C)C3)ccc1O (stereo unspecified),0.0441
4,CC(=O)Nc1ccc(S(=O)(=O)N2CCCCC2c2cccnc2)cc1 (stereo unspecified),-0.375
5,CC(=O)C1=C(C)N(Cc2ccco2)C(=O)C1(NC(=O)C1CCCCC1)C(F)(F)F (stereo unspecified),-0.0258
6,COc1ccc(CSc2nncn2N)cc1[N+](=O)[O-],0.116
7,CCOc1ccccc1NC(=O)c1ccc(F)c(S(=O)(=O)N2CCC3(CC2)OCCO3)c1,2.77
8,C/C(=N/NC(=O)Nc1ccccc1)c1ccc(C)cc1,-0.14
9,CCc1ccc(-c2nc(CSCC(=O)NCCCN3CCCC3=O)c(C)o2)cc1,-0.348
10,CCN(CC)S(=O)(=O)c1ccc2nc(CSc3nnnn3-c3ccc(O)cc3)[nH]c2c1,-0.372
11,CC1CCc2nc(NC(=O)CSc3nc4ccccc4o3)sc2C1 (stereo unspecified),0.586
12,COC(=O)c1ccccc1NC(=O)CN1CCC(n2nnc3cc(F)ccc32)CC1,-0.43
13,CCn1c(-c2cc(-c3ccc(OC(C)C)cc3)nc3ccccc23)n[nH]c1=S,1.25
14,C=COC(=O)CSc1snc(SCC(=O)OC)c1C#N,-0.893
15,O=c1[nH]c2ccc(N=Cc3c(O)ccc4cc(Br)ccc34)cc2[nH]1,-0.755
16,CCn1c(=S)[nH]c2cc(S(=O)(=O)N3CCCCC3)ccc21,0.428
17,O=C(Nc1ccc(N2CCN(Cc3ccccc3Cl)CC2)cc1)c1cccnc1,0.311
18,COc1cc(OC)c2c(c1)C(=O)OC2,-0.062
19,CC(=O)Nc1ccc(NC(=O)CSc2ccccn2)cc1,-0.239
20,N#CCCNC(=O)CCN1CCCCC1,-0.17
21,CCCCOC(=O)C(NC(=O)c1ccccc1)=C(C)C,-0.559
22,COc1ccc(-c2cc(C(=O)NCCc3ccccc3)no2)cc1OC,1.12
23,COc1ccccc1N1CCN(/N=C/c2cc(OC)c(OC)c(OC)c2)CC1,-0.0785
24,[O-]/[N+](=C\c1ccncc1)c1ccccc1,-0.31

row,Structure (SMILES),z-score
1,Cc1ccccc1-n1c(SCc2c(C)noc2C)nnc1-c1cccnc1,-0.106
2,CC(=O)OCC1OC(Sc2cccc3cccnc23)C(OC(C)=O)C(OC(C)=O)C1OC(C)=O (stereo unspecified),-0.0154
3,O=C(NC(=S)N1CCCc2ccccc21)c1ccc(Cl)cc1,active: 15.6
4,O=C(COc1ccccc1[N+](=O)[O-])NCc1cccnc1,-0.288
5,CCCCn1nnnc1SCC(=O)NCc1ccccc1,-0.156
6,Cc1ccc(NCc2cccnc2)cc1,-0.598
7,Cc1cc(C)c2[nH]c(=O)c(CN(Cc3cccs3)C(=S)NCc3ccco3)cc2c1,-0.141
8,CCN1C(=O)/C(=C\N2CCN(c3ccccc3)CC2)SC1=S,0.0106
9,COc1ccccc1C(=O)Nc1ccc(Oc2ncnc3sc(-c4ccccc4)cc23)cc1,-0.975
10,CN(C)CCCN(C(=O)c1ccc2c(c1)CCCC2)c1nc2ccc(F)cc2s1,0.35
11,CCOC(=O)c1[nH]c2c(c1C)C(=O)CC(c1ccc(OC)c(OC)c1)C2 (stereo unspecified),-0.228
12,CCN1CCN(C(=O)c2c(-c3c(F)cccc3Cl)noc2C)CC1,-0.521
13,Cc1sc(NC(=O)C2CCCO2)c(C(N)=O)c1C (stereo unspecified),0.183
14,COc1ccc(Cl)cc1NC(=O)c1c(-c2ccccc2)noc1C,0.0513
15,CC(=O)c1cccc(NC(=O)N2CCCC2C(=O)Nc2cc(C)ccc2C)c1 (stereo unspecified),-0.656
16,O=C(OCCN1C(=O)c2cccc3c(N4CCOCC4)ccc(c23)C1=O)c1ccc(Cl)cc1,-0.758
17,O=C(Nc1ccc(N2CCOCC2)c(Cl)c1)c1ccco1,1.5
18,Cc1ccc(C)c(N(CC(=O)Nc2cc(Cl)ccc2Oc2ccccc2)S(C)(=O)=O)c1,-0.202
19,CCCN1CNC(=S)N(c2cc(C)ccc2C)C1,0.168
20,CCC(=O)NC(=S)Nc1ccccc1F,0.199
21,C=CCc1c(C)nc(SC(C)C)[nH]c1=O,-0.459
22,COC(=O)CSc1nnc(CNS(=O)(=O)c2ccc(C)cc2)n1C,0.716
23,c1ccc(-c2csc(Nc3ncccn3)n2)cc1,-0.623
